By IC50 is meant the dose at which the fit gives 50% viability; a limit (>, <) means that the fit lies beyond the doses tested. AUC sums up the same curve from the lowest dose to the 256-fold higher top dose; values near 1 show little effect. The top dose, if marked as inferred, comes from the curve model; the source does not state it.

Compound in this test: Cn1cc(C2=C(c3cn(C4CCN(Cc5ccccn5)CC4)c4ccccc34)C(=O)NC2=O)c2ccccc21 [LY317615]
The test can be described thus: Viability of human cancer cell lines after 72 h of drug (GDSC screen). As to conditions: top dose inferred. As for the experimental part:
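Human cancer cell lines in 384-well plates, medium with 10% serum, drug for 72 h over a 256-fold dose range (nine 2-fold or five 4-fold steps up to the top dose). Adherent lines were fixed and stained with the nucleic acid dye Syto60, suspension lines read with resazurin; signal relative to control wells, capped at 0 and 100%. One two-parameter sigmoid per drug and line, fitted in a mixed model over all curves with the slope shared within a line.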
One may read the IC50 as the concentration that inhibits the measured activity by half. Take “ES7 (Ewing sarcoma, adherent, top dose 20 µM)”: the AUC was 0.662 and the IC50 is 3.57 µM.
In the case of “HT-115 (large intestine, adherent, top dose 20 µM)”, the AUC worked out at 0.965 and the 50% inhibitory concentration (IC50) was greater than 20 µM.
For the cell line “KOPN-8 (B-cell leukaemia, suspension, top dose 20 µM)”, the AUC was found to be 0.791 and the IC50 stood at 7.59 µM.
In the case of “KMRC-20 (kidney, adherent, top dose 20 µM)”, the AUC amounted to 0.986 and the 50% inhibitory concentration (IC50) was greater than 20 µM.
On to “SW1088 (glioma, adherent, top dose 20 µM)”, for which the AUC was determined as 0.916 and the IC50 was greater than 20 µM.
In the same order, the values of “NCI-H727 (lung carcinoid, adherent, top dose 20 µM)” are 0.623 and 3.39 µM.
In the same order, the values of “NCI-H1993 (lung adenocarcinoma, adherent, top dose 20 µM)” are 0.872 and greater than 20 µM.
For “AU565 (breast, adherent, top dose 20 µM)” the same measures were 0.768 and 8.31 µM.
For DOV13 (ovary, adherent, top dose 20 µM), the AUC was found to be 0.932 and the IC50 was greater than 20 µM.
For the cell line “NCI-H522 (lung adenocarcinoma, adherent, top dose 20 µM)”, the AUC was determined as 0.822 and the IC50 was found to be 14.7 µM.
With “HCC1569 (breast, adherent, top dose 20 µM)”, the AUC is 0.667 and the IC50 turned out to be 4.27 µM.
In the same order, the values of “GCT (soft tissue, adherent, top dose 20 µM)” are 0.987 and greater than 20 µM.
In the same order, the values of “451Lu (melanoma, adherent, top dose 20 µM)” are 0.974 and greater than 20 µM.
Turning to “SK-LMS-1 (soft tissue, adherent, top dose 20 µM)”, the AUC stood at 0.812 and the IC50 came to 10.1 µM.
In the same order, the values of “LN-229 (glioma, adherent, top dose 20 µM)” are 0.953 and greater than 20 µM.
As for “SIG-M5 (acute myeloid leukaemia, suspension, top dose 20 µM)”, the AUC came out at 0.722 and the 50% inhibitory concentration (IC50) was found to be 4.4 µM.
For “RCC-ER (kidney, adherent, top dose 20 µM)” the same measures were 0.587 and 2.23 µM.
For “YMB-1-E (breast, adherent, top dose 20 µM)” the same measures were 0.916 and greater than 20 µM.
In the same order, the values of “CAL-85-1 (breast, adherent, top dose 20 µM)” are 0.85 and greater than 20 µM.
Consider “JURL-MK1 (chronic myeloid leukaemia, suspension, top dose 20 µM)”, for which the AUC was found to be 0.773 and the concentration for half-maximal inhibition (IC50) worked out at 7.75 µM.
For “PA-TU-8988T (pancreas, adherent, top dose 20 µM)” the same measures were 0.963 and greater than 20 µM.
As to “KM12 (large intestine, adherent, top dose 20 µM)”, the AUC was 0.886 and the IC50 was greater than 20 µM.
For “SK-N-DZ (neuroblastoma, adherent, top dose 20 µM)” the same measures were 0.987 and greater than 20 µM.
In the same order, the values of SISO (cervix, adherent, top dose 20 µM) are 0.88 and 19.2 µM.
Turning to “ABC-1 (lung adenocarcinoma, adherent, top dose 20 µM)”, the AUC came out at 0.928 and the concentration for half-maximal inhibition (IC50) was greater than 20 µM.
“KON (head and neck, adherent, top dose 20 µM)”: the AUC worked out at 0.97 and the 50% inhibitory concentration (IC50) was greater than 20 µM.
Turning to “NAMALWA (Burkitt lymphoma, suspension, top dose 20 µM)”, the AUC was found to be 0.791 and the IC50 amounted to 7.43 µM.
For “SK-MM-2 (myeloma, suspension, top dose 20 µM)” the same measures were 0.781 and 8.68 µM.
For “NCI-H1693 (lung adenocarcinoma, adherent, top dose 20 µM)” the same measures were 0.977 and greater than 20 µM.
For “DSH1 (bladder, adherent, top dose 20 µM)”, the AUC was determined as 0.433 and the IC50 was determined as 0.825 µM.
“MRK-nu-1 (breast, suspension, top dose 20 µM)”: the AUC was found to be 0.988 and the 50% inhibitory concentration (IC50) was greater than 20 µM.
Consider “NB12 (neuroblastoma, adherent, top dose 20 µM)”, for which the AUC is 0.826 and the IC50 worked out at 18.2 µM.
With “SKN-3 (head and neck, adherent, top dose 20 µM)”, the AUC turned out to be 0.983 and the half-inhibitory concentration (IC50) is greater than 20 µM.
For “FLO-1 (oesophagus, adherent, top dose 20 µM)”, the AUC came out at 0.888 and the IC50 is greater than 20 µM.
For “SNU-449 (liver, adherent, top dose 20 µM)”, the AUC stood at 0.856 and the IC50 is 18.6 µM.
For “RPMI-8866 (chronic myeloid leukaemia, suspension, top dose 20 µM)” the same measures were 0.901 and greater than 20 µM.
For the cell line DJM-1 (skin, adherent, top dose 20 µM), the AUC worked out at 0.987 and the IC50 was greater than 20 µM.
In the same order, the values of “NCI-H1092 (small cell lung carcinoma, suspension, top dose 20 µM)” are 0.942 and greater than 20 µM.
In the same order, the values of “NCI-H847 (small cell lung carcinoma, adherent, top dose 20 µM)” are 0.906 and 18.1 µM.
On to “BHY (head and neck, adherent, top dose 20 µM)”, for which the AUC amounted to 0.814 and the IC50 stood at 11 µM.
In the same order, the values of “OVCAR-5 (ovary, adherent, top dose 20 µM)” are 0.649 and 3.53 µM.
In the same order, the values of “BPH-1 (prostate, adherent, top dose 20 µM)” are 0.333 and 0.405 µM.
For “YKG-1 (glioma, adherent, top dose 20 µM)” the same measures were 0.873 and 19.7 µM.
As to “PC-3 (prostate, adherent, top dose 20 µM)”, the AUC was 0.735 and the IC50 was determined as 6.88 µM.
With “RPMI-8226 (myeloma, suspension, top dose 20 µM)”, the AUC is 0.882 and the IC50 turned out to be 16.4 µM.
As for “CP50-MEL-B (melanoma, adherent, top dose 20 µM)”, the AUC was determined as 0.962 and the IC50 was greater than 20 µM.
In the same order, the values of “CL-11 (large intestine, adherent, top dose 20 µM)” are 0.987 and greater than 20 µM.
For the cell line “COLO-684 (endometrium, suspension, top dose 20 µM)”, the AUC is 0.807 and the IC50 stood at 11.8 µM.
Regarding “HCC70 (breast, adherent, top dose 20 µM)”, the AUC came to 0.929 and the IC50 was greater than 20 µM.
In the same order, the values of “NCI-H841 (small cell lung carcinoma, adherent, top dose 20 µM)” are 0.95 and greater than 20 µM.
“SK-N-AS (neuroblastoma, adherent, top dose 20 µM)”: the AUC was 0.714 and the concentration for half-maximal inhibition (IC50) worked out at 5.57 µM.
SKN (uterus, adherent, top dose 20 µM): the AUC stood at 0.766 and the 50% inhibitory concentration (IC50) was found to be 8.93 µM.
Consider “H2731 (mesothelioma, adherent, top dose 20 µM)”, for which the AUC amounted to 0.96 and the IC50 was greater than 20 µM.
For “KCL-22 (chronic myeloid leukaemia, suspension, top dose 20 µM)” the same measures were 0.872 and 14 µM.
As to “IPC-298 (melanoma, adherent, top dose 20 µM)”, the AUC came to 0.947 and the IC50 is greater than 20 µM.
In the case of “BFTC-909 (kidney, adherent, top dose 20 µM)”, the AUC was determined as 0.974 and the half-maximal inhibitory concentration (IC50) was greater than 20 µM.
For “MEG-01 (chronic myeloid leukaemia, suspension, top dose 20 µM)” the same measures were 0.708 and 4.62 µM.
Take “SNG-M (endometrium, adherent, top dose 20 µM)”: the AUC was 0.561 and the IC50 is 1.82 µM.
In the same order, the values of “NCI-H358 (lung adenocarcinoma, adherent, top dose 20 µM)” are 0.37 and 0.525 µM.
Consider “TC-71 (Ewing sarcoma, adherent, top dose 20 µM)”, for which the AUC stood at 0.907 and the IC50 worked out at 19.3 µM.
In the same order, the values of “SNU-175 (large intestine, suspension, top dose 20 µM)” are 0.677 and 3.76 µM.
For “D-283MED (medulloblastoma, adherent, top dose 20 µM)” the same measures were 0.987 and greater than 20 µM.
For “EW-24 (Ewing sarcoma, semi-adherent, top dose 20 µM)” the same measures were 0.993 and greater than 20 µM.
“RH-1 (rhabdomyosarcoma, adherent, top dose 20 µM)”: the AUC stood at 0.953 and the IC50 is greater than 20 µM.
For “KMS-12-BM (myeloma, suspension, top dose 20 µM)” the same measures were 0.854 and 11.7 µM.
In the same order, the values of “COLO-792 (melanoma, adherent, top dose 20 µM)” are 0.882 and greater than 20 µM.
In the same order, the values of “D-423MG (glioma, adherent, top dose 20 µM)” are 0.801 and 12.3 µM.

Values taken from the supplement of paper PMC4967469.
